# Measurements reported in PubChem BioAssay AID2528 (National Center for Advancing Translational Sciences (NCATS), 2010).
# Values joined by “and” are separate entries in the source; they are usually repeats but may differ in a detail not shown here. Equal entries are not always repeated. Among all 350,000 compounds or so, about 700 (0.2%) were called active. Inconclusive results, whose numbers are uncertain, are shown with a selection of clear calls. The call rests on the fitted dose curve; in most records, active means well fitted inhibition curve with a large enough effect; inconclusive means small, poorly fitted or top-dose-only effect; inactive means flat fitted curve, though single readings scatter. A potency beside an inconclusive call is a rough fit, not a confirmed value.
# Molecular target: RecQ-like DNA helicase BLM (Homo sapiens) (UniProt P54132)
# Assay: qHTS Assay for Inhibitors of Bloom's syndrome helicase (BLM); further: nearly all actives have a fitted effect of over 35% in size;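 on activity change, negative = inhibition: plate controls were vehicle for no effect and no enzyme for full effect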
# Details: recombinant BLM DNA unwinding, fluorescence dequenching; series mostly up to 56.1 µM; activity change, negative = inhibition: at the top concentration
# Potency means the concentration at half of the fitted maximal effect; tags describe the fitted curve by direction and shape.
# Chain of UniProt P54132 (P54132 whole entry, looked up): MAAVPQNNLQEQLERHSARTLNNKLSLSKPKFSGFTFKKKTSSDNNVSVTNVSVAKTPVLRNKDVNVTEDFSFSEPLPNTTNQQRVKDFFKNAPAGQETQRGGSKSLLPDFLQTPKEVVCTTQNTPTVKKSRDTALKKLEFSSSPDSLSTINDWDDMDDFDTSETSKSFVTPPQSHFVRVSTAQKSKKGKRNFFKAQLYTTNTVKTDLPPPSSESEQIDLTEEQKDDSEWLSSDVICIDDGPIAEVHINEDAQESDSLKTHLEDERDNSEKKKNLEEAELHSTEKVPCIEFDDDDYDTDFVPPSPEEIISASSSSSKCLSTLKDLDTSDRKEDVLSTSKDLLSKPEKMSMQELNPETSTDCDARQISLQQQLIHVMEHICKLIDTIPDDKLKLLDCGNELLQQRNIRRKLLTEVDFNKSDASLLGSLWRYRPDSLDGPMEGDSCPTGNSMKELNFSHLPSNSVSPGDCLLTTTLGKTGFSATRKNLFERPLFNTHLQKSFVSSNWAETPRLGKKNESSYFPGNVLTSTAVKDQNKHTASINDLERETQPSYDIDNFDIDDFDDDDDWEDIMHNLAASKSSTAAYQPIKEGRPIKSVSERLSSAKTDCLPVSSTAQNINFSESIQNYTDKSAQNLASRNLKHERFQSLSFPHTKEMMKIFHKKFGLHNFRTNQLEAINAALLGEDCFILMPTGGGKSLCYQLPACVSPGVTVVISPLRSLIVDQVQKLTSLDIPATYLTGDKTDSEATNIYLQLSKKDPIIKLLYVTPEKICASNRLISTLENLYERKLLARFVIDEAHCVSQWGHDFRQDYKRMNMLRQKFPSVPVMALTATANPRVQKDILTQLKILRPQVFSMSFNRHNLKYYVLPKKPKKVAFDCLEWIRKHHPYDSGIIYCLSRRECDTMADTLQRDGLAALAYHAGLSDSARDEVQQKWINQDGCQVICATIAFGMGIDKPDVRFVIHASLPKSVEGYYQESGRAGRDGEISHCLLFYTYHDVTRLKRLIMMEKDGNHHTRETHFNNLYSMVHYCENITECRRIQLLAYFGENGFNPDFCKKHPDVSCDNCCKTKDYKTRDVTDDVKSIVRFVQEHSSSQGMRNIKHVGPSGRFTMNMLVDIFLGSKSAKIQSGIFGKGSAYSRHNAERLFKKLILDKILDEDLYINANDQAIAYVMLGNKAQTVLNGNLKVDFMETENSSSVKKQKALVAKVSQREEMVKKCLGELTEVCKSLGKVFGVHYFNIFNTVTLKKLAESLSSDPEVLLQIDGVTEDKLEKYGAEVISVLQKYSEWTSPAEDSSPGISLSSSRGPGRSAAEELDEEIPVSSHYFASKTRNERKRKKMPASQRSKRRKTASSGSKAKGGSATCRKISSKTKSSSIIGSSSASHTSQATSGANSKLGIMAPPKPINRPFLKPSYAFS
SMILES,"activity change, negative = inhibition",Potency
CCc1ccc(NC(=O)CSc2nc3ncccc3[nH]2)cc1,inactive: -5.67%,–
COCCCN(C(=O)c1cc2c(s1)CCC2)c1c(N)n(Cc2ccccc2)c(=O)[nH]c1=O,–,"inconclusive: 10 µM [inhibitor, partial curve]"
Cc1cc(=O)cc2oc3cc(N)c(-c4c(C)cc(O)cc4O)c(C)c3nc1-2,–,active: 15.8 µM
Cc1ccc(-c2ccc(CCC(=O)O)n2CC(=O)O)cc1,inactive: 8.03%,–
Cc1ccc(-c2csc3n[nH]c(=S)n23)cc1,inactive: -0.741%,–
O=C(O)c1cc2cc(F)ccc2[nH]1,–,inactive
Cc1ccc(NC(=O)CSc2nc(NS(=O)(=O)c3ccccc3)cc(=O)[nH]2)cc1,–,"inconclusive: 25.1 µM [inhibitor, single point]"
Cc1ccc2nc(/C(C#N)=C\c3ccc(Oc4ccc(C(F)(F)F)cc4[N+](=O)[O-])cc3)[nH]c2c1,inactive: -16%,–
COc1ccc(-c2ccc3cc(C(=O)O)ccc3c2)cc1C12CC3CC(CC(C3)C1)C2,–,"inconclusive: 28.2 µM [inhibitor, single point]"
Cc1cc(C)n2[nH]c(=O)c(N=Nc3ccccc3)c2n1,inactive: -4.34%,–
Cn1c(SCC(=O)Nc2ccc3nc(SCC(=O)N4CCCC4)sc3c2)nnc1-c1ccccc1,inactive: -26.6%,–
CCOc1cc(CNc2ccc(O)cc2)cc(Br)c1OCc1ccccc1F,–,"inconclusive: 28.2 µM [inhibitor, single point]"
O=C(C(=O)N1CCN(c2ccccc2Cl)CC1)c1c[nH]c2ccccc12,inactive: -7.18%,–
CC1=CC2(O)OCCN(CCO)C2=CC1=O (stereo not given),–,"inconclusive: 31.6 µM [inhibitor, single point]"
CC(=O)c1ccc(NC(=O)CC2Nc3cccc4cccc(c34)NC2=O)cc1 (stereo not given),–,"inconclusive: 2.82 µM [inhibitor, full curve]"
COc1cccc([C@@H]2Oc3ccc(OC)cc3C(=O)[C@H]2OC(=O)NCCc2ccc(OC)c(OC)c2)c1,inactive: -6.5%,–
C/C(=N\NC(=S)NCc1ccccc1)c1ccc(C)o1,–,"inconclusive: 39.8 µM [inhibitor, partial curve]"
CSc1nc(N(C)CCO)c2sc3nc(-c4ccco4)c4c(c3c2n1)CCC4,–,active: 20 µM
CC1CCC(NC(=O)C2CC(=O)N(c3ccc(Cl)cc3)C2)CC1 (stereo not given),–,"inconclusive: 39.8 µM [inhibitor, single point]"
C#Cc1ccc(C(=O)NCc2ccc(N3CCCC3=O)cc2)cc1,–,"inconclusive: 14.1 µM [inhibitor, partial curve]"
COc1cccc(N2CC34C=CC(O3)C(C(=O)O)C4C2=O)c1 (stereo not given),–,"inconclusive: 25.1 µM [inhibitor, single point]"
CCc1ccccc1NC(=O)c1cnc2sc(N3CCOCC3)nn2c1=O,inactive: 2.18%,–
Cc1ccc(C2NC(=O)NC3=C2CCc2ccccc23)cc1 (stereo not given),–,"inconclusive: 39.8 µM [inhibitor, single point]"
Cc1ccc(NC(=O)CN2C(=O)S/C(=C\c3ccc(OCC(=O)O)c(Br)c3)C2=O)cc1,–,"inconclusive: 28.2 µM [inhibitor, single point]"

SMILES,"activity change, negative = inhibition",Potency
O=C(CCc1nc2cccnc2n1Cc1ccccc1)NCc1cccc(Cl)c1,inactive: -3.49%,–
Oc1c(Br)cc(Br)cc1CNc1cccc2cccnc12,–,"inconclusive: 31.6 µM [inhibitor, single point]"
O=c1[nH]c(=O)c2nc3c4ccccc4c4ccccc4c3nc2[nH]1,–,"inconclusive: 3.55 µM [inhibitor, single point]"
O=[N+]([O-])c1cc(F)c2cccnc2c1O,–,"inconclusive: 31.6 µM [inhibitor, single point]"
CCc1cc2c(=O)c(-c3nc4ccccc4n3C)coc2c(CN2CCCCC2C)c1O (stereo not given),–,"inconclusive: 22.4 µM [inhibitor, single point]"
O=c1c(O)cc(C2Oc3cc(O)cc(O)c3CC2O)cc2c(C3Oc4cc(O)cc(O)c4CC3O)cc(O)c(O)c12 (stereo not given),–,active: 28.2 µM
CCCN(C(=O)c1c(C)oc2ncn(CC(C)C)c(=O)c12)c1ccccc1C,inactive: 0.847%,–
COc1ccc(-c2nn(C)c3sc(C(=O)Nc4cc(OC)c(OC)c(OC)c4)cc23)cc1OC,–,active: 20 µM
COc1cc(/C=C(\C#N)C(=O)Nc2cccc(C(=O)O)c2)ccc1OCc1ccc(Cl)cc1,–,"inconclusive: 17.8 µM [inhibitor, partial curve]"
COc1cc(C(=S)N2CCN(c3ccccc3Cl)CC2)cc(O)c1O,–,"inconclusive: 25.1 µM [inhibitor, partial curve, poor fit]"
CCN(CC)S(=O)(=O)c1ccc(N/N=C/c2cc(OC)ccc2O)nc1,inactive: 0.677%,–
O=S(=O)(O)c1ccc2c(c1)-c1nc-2nc2[nH]c(nc3nc(nc4[nH]c(n1)c1ccc(S(=O)(=O)O)cc41)-c1ccc(S(=O)(=O)O)cc1-3)c1ccc(S(=O)(=O)O)cc21,–,active: 1.58 µM
O=C(/C=C/c1ccc(-c2ccccc2[N+](=O)[O-])o1)c1ccccc1,–,"inconclusive: 12.6 µM [inhibitor, partial curve]"
Cc1cc(C)cc(N2C(=O)C3CC=CCC3C2=O)c1 (stereo not given),inactive: 3.29%,–
CCC(=O)O[C@H]1C(O[C@@H]2C(C)[C@H](O[C@H]3C[C@@](C)(OC)C(O)C(C)O3)C(C)C(=O)OC(CC)[C@@](C)(O)C(O)[C@H](C)C(=O)C(C)C[C@]2(C)O)OC(C)CC1N(C)C (stereo not given in full),–,active: 28.2 µM
COc1ccccc1CNc1nc(-c2ccc(N(C)C)cc2)nc2ccccc12,–,active: 14.1 µM
NC(=O)C(=CNc1nc(-c2ccc(Cl)c(Cl)c2)cs1)C(N)=O,–,"inconclusive: 3.16 µM [inhibitor, full curve]"
C[C@H]1C(c2cccc(Cl)c2)=NN(c2ccccc2)[C@@H]1CO,inactive: -9.95% [at 75.6 µM],–
COc1ccc(C(=O)c2cn(CC(=O)Nc3ccc4c(c3)OCCO4)c3ccc(OC)cc3c2=O)cc1,–,active: 10 µM
S=C(NCc1ccco1)Nc1ccc(Oc2ccccc2)cc1,–,"inconclusive: 22.4 µM [inhibitor, partial curve]"
COc1cccc(/C=N\NC(=O)c2ccc(Cn3cc(Br)c([N+](=O)[O-])n3)o2)c1O,–,active: 31.6 µM
COC1OC(COC(=O)c2ccccc2)C(OC(=O)c2ccccc2)C1OC(=O)c1ccccc1 (stereo not given),inactive: -7.09%,–
COc1ccc(OCC(=O)Nc2c(Cl)ccc3nsnc23)cc1,–,"inconclusive: 20 µM [inhibitor, single point]"
COc1ccc(NC(=O)c2c(NCc3ccc(C)o3)sc3c2CCC(C)C3)c(OC)c1 (stereo not given),inactive: -9.9%,–

SMILES,"activity change, negative = inhibition",Potency
Cc1ccc(CNC(=O)c2ccc(-n3cccc3)cc2)cc1,–,"inconclusive: 17.8 µM [inhibitor, partial curve]"
COc1ccc(CNC(=O)CN2C(=O)c3cccnc3Oc3ccc(C)cc32)cc1,inactive: -0.486%,–
Cn1nc(-c2ccc(C(=O)Nc3ccc(F)cc3)cc2)c2ccccc2c1=O,–,"inconclusive: 25.1 µM [inhibitor, partial curve]"
CC(C)COc1ccc(-c2nn(-c3ccccc3)cc2/C=C2/SC(=S)N(CC(=O)O)C2=O)cc1,–,"inconclusive: 39.8 µM [inhibitor, single point]"
Cc1ccc(-c2cc(-c3ccco3)c(C#N)c(=O)[nH]2)cc1,–,active: 25.1 µM
COCCCNC(=O)c1ccccc1Oc1ccccc1,inactive: -0.443%,–
Cc1[nH][nH]c(=O)c1C(c1c(C)[nH][nH]c1=O)c1cn(Cc2cccc3ccccc23)c2ccccc12,–,"inconclusive: 31.6 µM [inhibitor, single point]"
CC1CCN(S(=O)(=O)c2ccc3c(c2)CCN3C(=O)Nc2ccc(Br)cc2)CC1,inactive: -0.829%,–
O=S(=O)(c1ccccc1)N1CCC2(CC1)CN(C(c1ccccc1)c1ccccc1)C2,inactive: -2.45%,–
Cc1ccc(/C=N/NC(=O)c2cc3c(ccc4ccccc43)o2)o1,inactive: -2.26%,–
CCC(=O)Nc1ccc(NC(=S)NC(=O)/C=C/c2ccccc2)cc1,–,"inconclusive: 25.1 µM [inhibitor, single point]"
COc1c(O)c(O)cc2c1oc1c3ccccc3oc(=O)c21,–,active: 14.1 µM
CC(C)c1ccc(S(=O)(=O)c2cc3cc(Br)ccc3oc2=O)cc1,inactive: 1.02%,–
Cc1noc(/C=C/c2ccco2)c1S(=O)(=O)N1CCC(C(=O)N2CCc3ccccc3C2)CC1,–,"inconclusive: 14.1 µM [inhibitor, partial curve]"
CCC(c1nnnn1Cc1ccco1)N(Cc1cc2cc(OC)ccc2[nH]c1=O)C1CCCCC1 (stereo not given),–,"inconclusive: 28.2 µM [inhibitor, single point]"
COc1ccc(CCNC(=O)Cn2nc(C)c3c(C)n(-c4ccc(C)cc4)nc3c2=O)c(OC)c1,–,"inconclusive: 35.5 µM [inhibitor, single point]"
COc1ccc2nc3cc(Cl)ccc3c(Nc3cc(CN4CCCC4)c(O)c(CN4CCCC4)c3)c2n1,–,"inconclusive: 39.8 µM [inhibitor, single point]"
Oc1c(Cl)cc(Cl)cc1Sc1cc(Cl)cc(Cl)c1O,–,"inconclusive: 28.2 µM [inhibitor, single point] and inconclusive: 35.5 µM [inhibitor, single point]"
NC(=O)c1ccsc1NC(=O)CSc1nnc2ccccn12,–,"inconclusive: 31.6 µM [inhibitor, partial curve]"
CC(=O)Nc1cc(C(=O)N2CCCC2)ccc1Sc1ccc(C)cc1,–,"inconclusive: 15.8 µM [inhibitor, partial curve]"
COc1cc(NS(=O)(=O)c2ccc(-c3cc(C)no3)cc2)cc(OC)c1,inactive: -3.47%,–
Clc1ccc(-c2nnc(-c3ccco3)nc2N2CCCCC2)cc1,–,"inconclusive: 22.4 µM [inhibitor, single point]"
